Laboratory results taken from publication PMC4336329 (PLoS ONE, 2015).
The whole screen tested about 310,000 compounds, of which about 2,200 (0.71%) showed an effect of 50% or more. Effects have a minus sign here. The list shows a part of the results.

The compounds below were run against human ether-à-go-go-related gene (hERG) potassium channel (human, UniProt Q12809) (assay: primary screen, population patch clamp on CHO cells stably expressing hERG).
human ether-à-go-go-related gene (hERG) potassium channel, sequence (Q12809 whole entry, looked up): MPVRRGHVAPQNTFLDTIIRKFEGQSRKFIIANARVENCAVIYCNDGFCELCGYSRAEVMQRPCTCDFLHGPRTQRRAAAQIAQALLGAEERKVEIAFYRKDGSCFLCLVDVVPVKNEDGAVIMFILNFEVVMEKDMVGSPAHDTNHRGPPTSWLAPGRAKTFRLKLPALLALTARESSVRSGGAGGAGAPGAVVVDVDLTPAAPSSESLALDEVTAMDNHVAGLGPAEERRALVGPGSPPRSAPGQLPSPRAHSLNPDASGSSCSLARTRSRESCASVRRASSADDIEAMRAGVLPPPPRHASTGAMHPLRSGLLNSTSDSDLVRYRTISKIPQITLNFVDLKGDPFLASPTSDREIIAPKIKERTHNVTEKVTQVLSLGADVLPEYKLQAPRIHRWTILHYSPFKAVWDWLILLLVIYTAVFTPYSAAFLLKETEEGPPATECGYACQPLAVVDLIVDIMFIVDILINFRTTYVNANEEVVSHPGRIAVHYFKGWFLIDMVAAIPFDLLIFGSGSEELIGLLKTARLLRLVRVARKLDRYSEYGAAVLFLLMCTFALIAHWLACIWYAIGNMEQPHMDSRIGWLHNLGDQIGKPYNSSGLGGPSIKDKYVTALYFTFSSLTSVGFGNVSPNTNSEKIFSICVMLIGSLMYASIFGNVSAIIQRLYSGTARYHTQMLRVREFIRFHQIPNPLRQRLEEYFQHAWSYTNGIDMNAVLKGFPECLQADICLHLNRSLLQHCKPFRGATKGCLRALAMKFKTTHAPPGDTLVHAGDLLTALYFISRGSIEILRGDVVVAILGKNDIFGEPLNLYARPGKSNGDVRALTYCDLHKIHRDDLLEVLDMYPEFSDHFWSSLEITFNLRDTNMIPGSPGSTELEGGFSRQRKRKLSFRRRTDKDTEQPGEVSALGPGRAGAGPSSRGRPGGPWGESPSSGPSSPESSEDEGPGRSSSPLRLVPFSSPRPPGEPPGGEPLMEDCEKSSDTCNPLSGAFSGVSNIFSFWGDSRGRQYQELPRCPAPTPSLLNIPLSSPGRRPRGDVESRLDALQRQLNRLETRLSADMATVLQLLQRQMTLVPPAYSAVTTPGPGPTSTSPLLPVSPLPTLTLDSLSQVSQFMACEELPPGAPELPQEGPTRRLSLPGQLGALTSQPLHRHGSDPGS

With O=C(Nc1cc(Cl)ccc1N1CCOCC1)c1cc2ccccc2o1 as the compound, how does the “hERG current change (%, negative = inhibition) at 1uM” value read?
The value was 8.14%.

With CC(O)[C@H]1CC[C@H]2[C@@H]3CC[C@H]4C[C@@H](O)CC[C@]4(C)[C@H]3C(=O)C[C@]12C (stereo partly drawn) as the compound, how does the “hERG current change (%, negative = inhibition) at 1uM” value read?
Its value is -13.2%.

With OC(c1ccccc1)(c1ccc(Cl)cc1)C1CN2CCC1CC2 (stereo not drawn) as the compound, how does the “hERG current change (%, negative = inhibition) at 1uM” value read?
The value was -11.9%.

For COc1ccccc1NC(=O)Cn1nnc(C(=O)NCc2ccc3c(c2)OCO3)c1N, which “hERG current change (%, negative = inhibition) at 1uM” value is on record?
Its value is 4.97%.

Which “hERG current change (%, negative = inhibition) at 1uM” value does the source give for COc1cc2cc(CN(Cc3cccnc3)C(=O)NCc3ccccc3)c(=O)[nH]c2cc1OC here?
Its value is 8.58%.

Which “hERG current change (%, negative = inhibition) at 1uM” value does the source give for CC(C)C[C@H](NC(=O)N1CC(=O)Nc2ccccc21)C(=O)N1CCC(C(=O)O)CC1 here?
Its value is 19%.

With CCOC(=O)c1nn(-c2ccc3c(c2)OCCO3)cc1O as the compound, how does the “hERG current change (%, negative = inhibition) at 1uM” value read?
Its value is 5.16%.

Which “hERG current change (%, negative = inhibition) at 1uM” value does the source give for Cc1ccc(Cl)c(NC(=O)CN2CCNC(=O)C2)c1Cl here?
Its value is 6.94%.

How did the “hERG current change (%, negative = inhibition) at 1uM” value turn out when C/C=C(/C)C(=O)O[C@@H]1c2cc3c(c(OC)c2-c2c(cc(OC)c(OC)c2OC)[C@@H](OC(C)=O)[C@@H](C)[C@H]1C)OCO3 was run?
Its value is 3.17%.

Which “hERG current change (%, negative = inhibition) at 1uM” value does the source give for CSC1=NCCN1C(=O)Cc1ccc(F)cc1 here?
Its value is 1.07%.

Which “hERG current change (%, negative = inhibition) at 1uM” value does the source give for Cc1nc(N2CCOCC2)sc1C(=O)NN here?
Its value is 11.6%.

How did the “hERG current change (%, negative = inhibition) at 1uM” value turn out when Cc1ccc(C(=O)NCCc2ccc(S(=O)(=O)N3CCCC3)cc2)cc1 was run?
Its value is 17.8%.

How did the “hERG current change (%, negative = inhibition) at 1uM” value turn out when COc1ccc(C(=O)N2CCN(c3cccc(Cl)c3)CC2)cc1S(=O)(=O)NC1CC1 was run?
Its value is -79.6%.

Which “hERG current change (%, negative = inhibition) at 1uM” value does the source give for Cc1cc(C)n(CC(=O)NNC(=O)CCCOc2ccc(Cl)c(C)c2)n1 here?
The value was 9.81%.

With COc1ccc(N/C=C2\C(=O)c3c(sc(C)c3C)N(C)S2(=O)=O)cc1 as the compound, how does the “hERG current change (%, negative = inhibition) at 1uM” value read?
The value was 11.6%.

CCOc1ccc(C(=O)NCC(=O)OC2CCOC2=O)cc1OCC (stereo not drawn) was tested. Which “hERG current change (%, negative = inhibition) at 1uM” value did it give?
Its value is 12.5%.

Which “hERG current change (%, negative = inhibition) at 1uM” value does the source give for O=C(NCc1ccc2[nH]c3c(c2c1)CCCC3)c1ccc(S(=O)(=O)N2CCCCC2)cc1 here?
Its value is 14.5%.

How did the “hERG current change (%, negative = inhibition) at 1uM” value turn out when CCOC(=O)N1CCc2c(sc3nc4n(c(=O)c23)N=C(C)CS4)C1 was run?
Its value is 2.24%.

Which “hERG current change (%, negative = inhibition) at 1uM” value does the source give for COc1ccc(NC(=O)CNS(=O)(=O)c2cccs2)cc1 here?
The value was 7.23%.

For CC(=O)C1(O)C(C)CC2C3CCC4CC(O)CCC4(C)C3=CCC21C (stereo not drawn), which “hERG current change (%, negative = inhibition) at 1uM” value is on record?
Its value is 13.6%.

For Cc1ccc(NC(=O)CCc2nc3ccccc3c(=O)[nH]2)cc1S(=O)(=O)N1CCOCC1, which “hERG current change (%, negative = inhibition) at 1uM” value is on record?
Its value is 18.4%.

Which “hERG current change (%, negative = inhibition) at 1uM” value does the source give for COc1cc2ccccc2cc1C(=O)N1CCN(C)CC1.Cl here?
Its value is 1.81%.

Which “hERG current change (%, negative = inhibition) at 1uM” value does the source give for O=C(NNC(=O)C1CC1c1ccccc1)c1ccccc1F (stereo not drawn) here?
The value was 23.1%.

Which “hERG current change (%, negative = inhibition) at 1uM” value does the source give for CN(C)C=O.O=C(/C=C/c1cccs1)Nc1ccc(N2CCOCC2)c(S(=O)(=O)Nc2cc(Cl)ccc2Cl)c1 here?
Its value is 13.4%.

For Cc1cc(NC(=O)C2CCC2)n(-c2ccccn2)n1, which “hERG current change (%, negative = inhibition) at 1uM” value is on record?
The value was 9.33%.

Cc1ccc(CNC(=O)Nc2ccc(C)cc2)cc1 was tested. Which “hERG current change (%, negative = inhibition) at 1uM” value did it give?
Its value is 5.3%.

How did the “hERG current change (%, negative = inhibition) at 1uM” value turn out when CN1CCN(CCC(=O)Nc2ccc3c(c2)OCO3)CC1 was run?
The value was 9.02%.

With CC(=O)Nc1ccc(NS(C)(=O)=O)cc1 as the compound, how does the “hERG current change (%, negative = inhibition) at 1uM” value read?
The value was 8.76%.

With COC(=O)c1nc2ccc(N3CCOCC3)cc2c(C)c1C(=O)OC as the compound, how does the “hERG current change (%, negative = inhibition) at 1uM” value read?
Its value is -7.06%.

Which “hERG current change (%, negative = inhibition) at 1uM” value does the source give for CCCC(CCC)C(=O)Nc1ccncc1 here?
Its value is 4.14%.

How did the “hERG current change (%, negative = inhibition) at 1uM” value turn out when CCOC1=CC(=O)N(Cc2ccccc2)C1 was run?
The value was 13.4%.

Which “hERG current change (%, negative = inhibition) at 1uM” value does the source give for CCOc1ccccc1Nc1ncccc1C(=O)O here?
Its value is 6.65%.

Cc1cccc(NC(=O)NC(=O)c2ccccc2)n1 was tested. Which “hERG current change (%, negative = inhibition) at 1uM” value did it give?
Its value is 6.79%.

With CCc1ccc(NC(=O)Nc2cc(C(=O)O)ccc2N2CC3CC(C2)c2cccc(=O)n2C3)cc1 (stereo not drawn) as the compound, how does the “hERG current change (%, negative = inhibition) at 1uM” value read?
The value was 19.5%.

How did the “hERG current change (%, negative = inhibition) at 1uM” value turn out when Cc1cc(C(=O)CSc2nnc(-c3ccc(F)cc3)o2)c(C)n1CC1COc2ccccc2O1 (stereo not drawn) was run?
Its value is 11.8%.

How did the “hERG current change (%, negative = inhibition) at 1uM” value turn out when COc1ccc(C)cc1N(CC(=O)NC(C)c1ccccc1)S(C)(=O)=O (stereo not drawn) was run?
Its value is -0.598%.

NC(=O)CSc1ncnc2c1nnn2Cc1ccc(F)cc1 was tested. Which “hERG current change (%, negative = inhibition) at 1uM” value did it give?
The value was 7.63%.

CCOc1ccc2oc(C(=O)Nc3ccc(N4CCOCC4)cc3)c(C)c2c1 was tested. Which “hERG current change (%, negative = inhibition) at 1uM” value did it give?
Its value is 6.5%.

For COC(=O)[C@H]1C[C@@H](c2ccccc2)[C@H](C)C1(C)C, which “hERG current change (%, negative = inhibition) at 1uM” value is on record?
The value was 15.3%.

CC(C)(C)OC(=O)CNC(=O)c1nc[nH]c1C(=O)N1CCN(c2ccccc2)CC1 was tested. Which “hERG current change (%, negative = inhibition) at 1uM” value did it give?
Its value is 3.09%.

Cc1nnc(NC(=O)c2cc(-c3ccco3)nc3ccccc23)s1 was tested. Which “hERG current change (%, negative = inhibition) at 1uM” value did it give?
Its value is 8.32%.

CC1CCCCN1CC(O)COc1ccc(OCC(O)CN2CCCCC2C)cc1 (stereo not drawn) was tested. Which “hERG current change (%, negative = inhibition) at 1uM” value did it give?
Its value is 13.5%.

Which “hERG current change (%, negative = inhibition) at 1uM” value does the source give for Cc1cc(-c2nc(C)c(C(=O)NNS(=O)(=O)c3ccc(Cl)cc3Cl)s2)no1 here?
The value was 7.93%.

With CC(C)CCOc1ccc(C(=O)C[N+]2(C)CCOCC2)cc1.[I-] as the compound, how does the “hERG current change (%, negative = inhibition) at 1uM” value read?
Its value is 8.81%.

Which “hERG current change (%, negative = inhibition) at 1uM” value does the source give for COC(=O)C1=C(C)N(CC2CCCO2)C(=O)C1 (stereo not drawn) here?
The value was 0.685%.

For CN(Cc1cnn(C)c1)C(=O)C1CCC(=O)N(Cc2cccc(F)c2)C1 (stereo not drawn), which “hERG current change (%, negative = inhibition) at 1uM” value is on record?
Its value is -26.9%.

How did the “hERG current change (%, negative = inhibition) at 1uM” value turn out when Cn1c(SCC(=O)Nc2ccc(Br)cc2F)nnc1-c1ccco1 was run?
The value was 5.26%.

For CCCNC(=O)C1=C(C)C(=O)OC12CCC(C)CC2 (stereo not drawn), which “hERG current change (%, negative = inhibition) at 1uM” value is on record?
The value was 4.85%.

With CCN1N=C(c2ccccc2)Cn2c1nc1ccccc12 as the compound, how does the “hERG current change (%, negative = inhibition) at 1uM” value read?
Its value is -8.48%.

For Cc1ccc(OCC(=O)O/N=C(\N)c2ccccn2)cc1, which “hERG current change (%, negative = inhibition) at 1uM” value is on record?
Its value is 3.91%.

How did the “hERG current change (%, negative = inhibition) at 1uM” value turn out when O=C(O)c1ccc(CNC(=O)C23CC4CC(CC(C4)C2)C3)cc1 was run?
The value was 20.9%.

Which “hERG current change (%, negative = inhibition) at 1uM” value does the source give for Cc1ccc(S(=O)(=O)N(C)C)cc1NC(=O)COC(=O)C1CC1 here?
Its value is 17.3%.

For C/C(=N/NC(=O)CNC(=O)c1ccccn1)c1ccccc1, which “hERG current change (%, negative = inhibition) at 1uM” value is on record?
Its value is 7.7%.

How did the “hERG current change (%, negative = inhibition) at 1uM” value turn out when Cc1ccc(NC(=O)C2CCN(S(=O)(=O)c3cccs3)CC2)cc1 was run?
Its value is -9.36%.

Which “hERG current change (%, negative = inhibition) at 1uM” value does the source give for O=C(NCCc1ccccc1C(F)(F)F)C1CCC(=O)N(C2CC2)C1 (stereo not drawn) here?
The value was 0.207%.

Cc1onc(-c2ccccc2)c1C(=O)OCCOc1ccccc1F was tested. Which “hERG current change (%, negative = inhibition) at 1uM” value did it give?
Its value is 9.61%.

How did the “hERG current change (%, negative = inhibition) at 1uM” value turn out when O=C(Nc1cccc2ccccc12)C1CCN(C(=O)NCc2ccccc2)CC1 was run?
Its value is 12.2%.
